Assay results: the RNAGym collection of RNA variant scans (doi:10.7554/elife.90254)
Read counts are not given, so values of variants with three or more changes are uncertain.

B1: LINE1-mini (parent)
chain: GGCAGAGCUCAACACAGCGUGGCAAAGUGGCUGUGGCUAGACUGCC

Variants of: B1
Experiment: self-cleavage, relative activity (ratio to wild type); higher = more cleavage; in vitro, sequencing; the parent is a self-cleaving ribozyme

Q: For GGCAGAGCUCAACACAGAGUGUCAAAGUGGCUGUGGCUAUACUGCC [C18A G22U G40U], which self-cleavage is on record?
A: 0.08

Q: Which self-cleavage does the source give for GGCAGAGCUCAACACAGGGUGGGACAGAGGCUGUGGCUAGUCUGCC [C18G C23G A25C U28A A41U] here?
A: 0.02

Q: For GGCAGAGCUCAACACAGAGUGGCAAAGUGGCUGCGGCUGGACUGCC [C18A U34C A39G], which self-cleavage is on record?
A: 0.13

Q: With GGCAGAGCUCAACACAGAGUGGCAAAGUGUCUGUGGCUUGACUGCC [C18A G30U A39U] as the variant, how does the self-cleavage read?
A: 0.54

Q: With GGCAGAGCUCAACACAGAGUGGCAAAGUGGCGGUGGGUAGACUGAC [C18A U32G C37G C45A] as the variant, how does the self-cleavage read?
A: 0.01

Q: For GGCAGAGCUCAACACAGAGUGUCAAAGUAGCUGUGCCUAGUCUGCC [C18A G22U G29A G36C A41U], which self-cleavage is on record?
A: 0.02

Q: For GGCAGAGCUCAACACAGAGUGGCAAAGUGGCUGUAGCGAGGUUGCC [C18A G35A U38G A41G C42U], which self-cleavage is on record?
A: 0.02

Q: Which self-cleavage does the source give for GGCAGAGCUCAACACAGGGUGGCAAAGUGGUUGUGGGUAUACUGCC [C18G C31U C37G G40U] here?
A: 0.01

Q: Which self-cleavage does the source give for GGCAGAGCUCAACACAGGGUGGCACACUGGCUGUGGCUAGACUGCA [C18G A25C G27C C46A] here?
A: 0.44

Q: For GGCAGAGCUCAACACAGGGUGGGAAAGUGGCUGUGGCUAGACUUCC [C18G C23G G44U], which self-cleavage is on record?
A: 0.03

Q: For GGCAGAGCUCAACACAGGAUGGCAAAGUGGCUGUGGCUAUACUGCC [C18G G19A G40U], which self-cleavage is on record?
A: 0.06

Q: Which self-cleavage does the source give for GGCAGAGCUCAACACAGGGUGGCUAAGUGGAUUUGGCUAGACUGCC [C18G A24U C31A G33U] here?
A: 0.02

Q: Which self-cleavage does the source give for GGCAGAGCUCAACACAGAGUGGCAAAGUGGCUGUCGAUAUACUGCC [C18A G35C C37A G40U] here?
A: 0.09

Q: Which self-cleavage does the source give for GGCAGAGCUCAACACAGGGUGGCAAGGUGGCUAUGGCUAGACUGCC [C18G A26G G33A] here?
A: 0

Q: For GGCAGAGCUCAACACAGAGUGGCAAAGUGGCUUUGGCUAUACUGCC [C18A G33U G40U], which self-cleavage is on record?
A: 0.07

Q: With GGCAGAGCUCAACACAGAGUGUCAAAGUAGCUGUGGCUAGACUGCC [C18A G22U G29A] as the variant, how does the self-cleavage read?
A: 2.53

Q: For GGCAGAGCUCAACACAGAGUGUCAAAGUUGCUGUGGCUAGACUGCC [C18A G22U G29U], which self-cleavage is on record?
A: 1.1

Q: Which self-cleavage does the source give for GGCAGAGCUCAACACAGGGUGGCAAGGAGGUUGUGGCGAGACUGCC [C18G A26G U28A C31U U38G] here?
A: 0.01

Q: Which self-cleavage does the source give for GGCAGAGCUCAACACAGAGAGGCAAAGUGGCUGUGGCUAGACUUCC [C18A U20A G44U] here?
A: 0.01

Q: Which self-cleavage does the source give for GGCAGAGCUCAACACAGGGUGGCAAAGUGGCUGUGGCUAGCGUGCC [C18G A41C C42G] here?
A: 0.04

Q: Which self-cleavage does the source give for GGCAGAGCUCAACACAGGGUGGUAACGUGGCUGUGGCUAGACUGCC [C18G C23U A26C] here?
A: 0.83

Q: For GGCAGAGCUCAACACAGAGUGGCAAAGUGGCGAUGGAUAGACAGCC [C18A U32G G33A C37A U43A], which self-cleavage is on record?
A: 0.01

Q: Which self-cleavage does the source give for GGCAGAGCUCAACACAGAGUGGCAAACUAGCUGUGGCUAGACUGCC [C18A G27C G29A] here?
A: 0.13

Q: With GGCAGAGCUCAACACAGGAUGGCGAAGUGGCUGUGGCUAGACUGCC [C18G G19A A24G] as the variant, how does the self-cleavage read?
A: 0.81

Q: Which self-cleavage does the source give for GGCAGAGCUCAACACAGAGUGGCAAAGUGGCAGUAGCUAGAGUGCC [C18A U32A G35A C42G] here?
A: 0.03

Q: With GGCAGAGCUCAACACAGAGUGGCAAAAUGCCUGUGGCUAGACUGCA [C18A G27A G30C C46A] as the variant, how does the self-cleavage read?
A: 0.64

Q: With GGCAGAGCUCAACACAGAGUGGCAAAGCGGCUGAGGCUAGUCUCCC [C18A U28C U34A A41U G44C] as the variant, how does the self-cleavage read?
A: 0.01

Q: Which self-cleavage does the source give for GGCAGAGCUCAACACAGAGCGACAAAGUGGCUGUGGCUAGACUGCC [C18A U20C G22A] here?
A: 0.04

Q: For GGCAGAGCUCAACACAGGGUGGCAAAGUGGUUGUGGCUAGCCUGCC [C18G C31U A41C], which self-cleavage is on record?
A: 0.01

Q: With GGCAGAGCUCAACACAGGGUGGCCAAGUGGCUGUGGCUAGUCUGCC [C18G A24C A41U] as the variant, how does the self-cleavage read?
A: 0.04

Q: Which self-cleavage does the source give for GGCAGAGCUCAACACAGAGUGGCAAAGUGGCUGUGGCUAGACAGAC [C18A U43A C45A] here?
A: 0.04

Q: For GGCAGAGCUCAACACAGGGUGGCUAAGUGGCUGUGGCUUGACUGCC [C18G A24U A39U], which self-cleavage is on record?
A: 0.1

Q: For GGCAGAGCUCAACACAGGAUUGCAAAGUGGCUGUGGCUAGACUGCC [C18G G19A G21U], which self-cleavage is on record?
A: 0.97

Q: Which self-cleavage does the source give for GGCAGAGCUCAACACAGGGUGGCAAAGUGGCUGUGGGUAGACUUCC [C18G C37G G44U] here?
A: 0.09

Q: For GGCAGAGCUCAACACAGAGUGGCAAAGUCGCUGUUGCUAGACUGCC [C18A G29C G35U], which self-cleavage is on record?
A: 0.07

Q: With GGCAGAGCUCAACACAGGGUGGCACAGUAGCUGUGGCUAGACUGCC [C18G A25C G29A] as the variant, how does the self-cleavage read?
A: 0.1

Q: With GGCAGAGCUCAACACAGAGAGGCAAAGUGGCUGUGGCUAGACCGCC [C18A U20A U43C] as the variant, how does the self-cleavage read?
A: 0.02

Q: For GGCAGAGCUCAACACAGGGUGGCAUAGUGGCCGUGGCUAGACUGCC [C18G A25U U32C], which self-cleavage is on record?
A: 0.29

Q: For GGCAGAGCUCAACACAGGGUGGCAAAGUGGCUGUGGCUGGGCUUCC [C18G A39G A41G G44U], which self-cleavage is on record?
A: 0.02

Q: Which self-cleavage does the source give for GGCAGAGCUCAACACAGGGUGGCAAAGUGGAUGUGGCCAACCUGCC [C18G C31A U38C G40A A41C] here?
A: 0.03

Q: With GGCAGAGCUCAACACAGAGUGGCAAAGGCGCUGUUGCUAGACUGCC [C18A U28G G29C G35U] as the variant, how does the self-cleavage read?
A: 0.07

Q: With GGCAGAGCUCAACACAGAGUGGCAAAGUGGCAGAGGCUAGAAUGCC [C18A U32A U34A C42A] as the variant, how does the self-cleavage read?
A: 0.12

Q: With GGCAGAGCUCAACACAGAGUGGCAAAGUGUCUGUGGGUAGAUUGCC [C18A G30U C37G C42U] as the variant, how does the self-cleavage read?
A: 0.06

Q: Which self-cleavage does the source give for GGCAGAGCUCAACACAGAGGGGUAAAGUGGCUGUGGCUAGACUGCC [C18A U20G C23U] here?
A: 0.13

Q: With GGCAGAGCUCAACACAGAGUGUCAAAGUGGCCGUGGCUAGACUCCC [C18A G22U U32C G44C] as the variant, how does the self-cleavage read?
A: 0.03

Q: For GGCAGAGCUCAACACAGAGUGUCAAAGUGGUUGUGGCUUGACUGCC [C18A G22U C31U A39U], which self-cleavage is on record?
A: 0.04

Q: For GGCAGAGCUCAACACAGGGUGGCAAAGUGGUUGUGGCUAUUCUGCC [C18G C31U G40U A41U], which self-cleavage is on record?
A: 0

Q: Which self-cleavage does the source give for GGCAGAGCUCAACACAGAGUGGCAAAGUGGCCCUGGUUAGACUGCC [C18A U32C G33C C37U] here?
A: 0.02

Q: With GGCAGAGCUCAACACAGAGUGACAAAGAGGAUGUGGCUGGACGGCC [C18A G22A U28A C31A A39G U43G] as the variant, how does the self-cleavage read?
A: 0.01

Q: With GGCAGAGCUCAACACAGAGCGGCAAAGUGGCUGUGGCUAGCCUGCC [C18A U20C A41C] as the variant, how does the self-cleavage read?
A: 0.02

Q: With GGCAGAGCUCAACACAGAGGGGCAAAGUGGCUAUGGCUAGACUGCC [C18A U20G G33A] as the variant, how does the self-cleavage read?
A: 0.01

Q: With GGCAGAGCUCAACACAGGGUGGCAGAGUGGCUGCGGCUAGACUGCC [C18G A25G U34C] as the variant, how does the self-cleavage read?
A: 0.17

Q: For GGCAGAGCUCAACACAGGGUGGCACAGUGGCUGUGGCUAUACUGCC [C18G A25C G40U], which self-cleavage is on record?
A: 0.09

Q: For GGCAGAGCUCAACACAGAGUGGCAAACUGGAUAUGGCUAGAAUGCC [C18A G27C C31A G33A C42A], which self-cleavage is on record?
A: 0.01

Q: Which self-cleavage does the source give for GGCAGAGCUCAACACAGAGUGCCAAAGUGGCUGUGGCUACACUGCC [C18A G22C G40C] here?
A: 0.07

Q: Which self-cleavage does the source give for GGCAGAGCUCAACACAGAGUGGCAAAGUGGCUGUGGCUACAUUGCC [C18A G40C C42U] here?
A: 0.03
